# Results from paper PMC4336329 (PLoS ONE, 2015).
# Among all 310,000 compounds or so, about 2,200 (0.71%) showed an effect of 50% or more. The effect is printed as a negative number. The list shows a part of the results.
# Biological target: human ether-à-go-go-related gene (hERG) potassium channel (human, UniProt Q12809)
# Assay: primary screen, population patch clamp on CHO cells stably expressing hERG
# human ether-à-go-go-related gene (hERG) potassium channel, sequence (Q12809 whole entry, looked up): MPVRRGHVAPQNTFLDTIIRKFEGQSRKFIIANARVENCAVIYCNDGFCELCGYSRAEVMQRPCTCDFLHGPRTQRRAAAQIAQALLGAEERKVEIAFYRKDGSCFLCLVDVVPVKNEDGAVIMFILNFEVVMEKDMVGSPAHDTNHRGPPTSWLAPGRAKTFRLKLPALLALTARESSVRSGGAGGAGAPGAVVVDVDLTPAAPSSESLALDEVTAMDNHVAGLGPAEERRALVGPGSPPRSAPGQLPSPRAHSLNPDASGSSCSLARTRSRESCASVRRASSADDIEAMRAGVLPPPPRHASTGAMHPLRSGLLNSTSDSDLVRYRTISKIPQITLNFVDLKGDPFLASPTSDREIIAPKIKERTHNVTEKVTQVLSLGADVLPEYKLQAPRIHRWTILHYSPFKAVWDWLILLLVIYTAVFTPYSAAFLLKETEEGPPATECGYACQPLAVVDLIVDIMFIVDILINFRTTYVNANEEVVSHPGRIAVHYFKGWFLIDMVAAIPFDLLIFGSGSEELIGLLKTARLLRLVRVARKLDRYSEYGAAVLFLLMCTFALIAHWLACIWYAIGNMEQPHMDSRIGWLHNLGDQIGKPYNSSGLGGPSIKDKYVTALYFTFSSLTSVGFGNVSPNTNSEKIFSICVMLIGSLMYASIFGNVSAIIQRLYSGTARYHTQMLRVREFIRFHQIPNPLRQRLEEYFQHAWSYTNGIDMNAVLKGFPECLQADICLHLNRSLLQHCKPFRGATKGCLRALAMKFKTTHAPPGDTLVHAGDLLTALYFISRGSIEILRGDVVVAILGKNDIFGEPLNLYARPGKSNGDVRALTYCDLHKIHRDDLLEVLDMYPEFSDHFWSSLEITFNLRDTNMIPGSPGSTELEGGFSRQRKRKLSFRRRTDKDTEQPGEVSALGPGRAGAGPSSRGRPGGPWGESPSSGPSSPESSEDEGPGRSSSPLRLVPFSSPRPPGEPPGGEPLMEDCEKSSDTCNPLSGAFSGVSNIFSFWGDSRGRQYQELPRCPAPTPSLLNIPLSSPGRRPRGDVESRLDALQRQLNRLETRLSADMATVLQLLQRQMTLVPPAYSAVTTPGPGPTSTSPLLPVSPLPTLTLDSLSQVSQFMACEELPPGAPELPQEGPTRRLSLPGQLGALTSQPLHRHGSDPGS
row,SMILES,"hERG current change (%, negative = inhibition) at 1uM"
1,Clc1ncnc2scc(-c3ccc(Br)cc3)c12,6.74%
2,O=C(c1cccs1)N(c1ccc(F)cc1)C1C=CS(=O)(=O)C1 (centres unmarked),5.92%
3,O=C(NC1CCS(=O)(=O)C1)c1cccnc1 (centres unmarked),1.54%
4,COc1ccc(/C=C/C(=O)NC(C)CCc2ccccc2)cc1 (centres unmarked),-1.57%
5,Cn1c(CSCc2ccc(Cl)cc2)n[nH]c1=S,14.3%
6,CCNC(=O)CC1C(=O)N(c2ccc(C)cc2)C(=O)N1CCOC (centres unmarked),15.9%
7,O=C(CS(=O)(=O)c1ccccc1)Nc1ccccn1,25.4%
8,CCOC(=O)C1CCN(C(=O)c2ccccc2NC(C)=O)CC1,13.1%
9,O=C(c1cccs1)N1CCn2c1nc1ccccc12,-16.9%
10,CCOC(=O)c1sc(=NC(=O)c2cccc(C)c2)n(C)c1C,7.92%
11,O=C(Nc1ccc(-c2csnn2)cc1)C1CC1,13.5%
12,O=C(Nc1ccc(N2CCCCCC2)cc1)c1cccc(S(=O)(=O)N2CCOCC2)c1,3.22%
13,COc1ccccc1NC(=O)Nc1nc(CC(=O)N2CCN(c3ccccc3F)CC2)cs1,21.8%
14,COc1ccccc1C(=O)NC(CCSC)C(=O)NNC(=O)C(C)Oc1ccccc1F (centres unmarked),6.34%
15,O=C(COc1ncnc2scc(-c3ccccc3)c12)NCCN1C(=O)CSC1=O,4.5%
16,COc1ccc(SCCN2CC[C@@H](C(C)(C)C)CCC2=O)cc1,11.7%
17,COc1ccc(NC(=O)CSc2nc3nc(C)cc(C)n3n2)cc1,3.09%
18,COc1cc(C(=O)Nc2ccccc2N2CCOCC2)ccc1OCC(=O)N1CCOCC1,19.9%
19,Cc1[nH]nc2c1C(c1cnn(C)c1)C(C#N)=C(N)O2 (centres unmarked),-9.29%
20,CC(NC(=O)c1cc(-c2ccccc2)on1)c1ccccc1 (centres unmarked),12.1%

row,SMILES,"hERG current change (%, negative = inhibition) at 1uM"
1,c1ccc(N2CCCCC2)c(Nc2nc3ccccc3n3cnnc23)c1,10.4%
2,CCOc1ccc(-c2nc(CSCC(=O)NC3CC3)c(C)o2)cc1,15.1%
3,CC1=C(C(=O)OC(C)C)C(c2cccs2)NC(=O)N1 (centres unmarked),13.9%
4,CC(CC(=O)N1CCc2ccccc21)c1ccccc1 (centres unmarked),-1.81%
5,CC(C(=O)Nc1sc2c(c1C(=O)NCC1CCCO1)CCC2)N1C(=O)c2ccccc2C1=O (centres unmarked),14.4%
6,O=C(NCc1cccs1)c1cc(-c2ccccc2)nn1CC1CC(c2cccnc2)=NO1 (centres unmarked),-17.7%
7,CCOC(=O)C1(CCOc2ccccc2)CCN(C2Cc3ccccc3C2)CC1,-16.8%
8,O=C(Nc1ccccc1)c1ccccc1N=Cc1cccc(O)c1,12.7%
9,CCOC(=O)C1CCCN(C(=O)c2cccs2)C1 (centres unmarked),14.5%
10,c1cc(CNCCCN2CCOCC2)ccn1,6.18%
11,O=C(COC(=O)c1ccccc1)c1ccc(Br)cc1,8.24%
12,Cc1nnc(SCc2nnc(-c3cccs3)o2)n1C1CCCCC1,10.4%
13,COc1ccccc1/C=C1\SC(=O)N(CCC(=O)NNC(=O)c2ccccc2Cl)C1=O,9.9%
14,Cc1cccnc1NC(=O)c1ccc(S(=O)(=O)N2CCCCCC2)cc1,11.1%
15,CCOc1ccc(NC(=O)c2nccnc2CO)cc1,-4.47%
16,COc1ccc(NC(=O)COC(=O)c2ccccc2SCC(=O)N2CCCC2)cc1,-37%
17,COC(=O)c1ccc(C(=O)OC)c(NC(=S)N2CCCC(CO)C2)c1 (centres unmarked),9.6%
18,CC(NS(C)(=O)=O)C(c1cccs1)N1CCN(c2ccccc2)CC1 (centres unmarked),-0.402%
19,CC[N+](C)(CC)CC(=O)OCC1C(C)C=C(C)CC1C.[I-] (centres unmarked),12.8%
20,CC(=O)Oc1ccc2ccccc2c1C(NC(=O)Cc1ccccc1)c1ccccc1Cl (centres unmarked),13%

row,SMILES,"hERG current change (%, negative = inhibition) at 1uM"
1,Cc1ccc(SCCC(=O)NCc2ccncc2)cc1,-2.28%
2,C#CCOCCOCCOCCNc1nc(N2CCN(C(=O)[C@H]([C@@H](C)CC)n3cc(CCC[NH+]=C(N)N)nn3)CC2)nc(N2CCN(C(=O)[C@H](Cc3ccc(O)cc3)n3cc(CCO)nn3)CC2)n1.[Cl-],17.6%
3,O=C(CSc1nncn1-c1ccccn1)Nc1ccccc1Cl,16.8%
4,Cc1ccccc1N(CC(=O)NC1CCCCC1)C(=O)CCCC(=O)Nc1ccccn1,11.2%
5,COc1cc(OC)cc(C(=O)NCCCCc2ccccc2)c1,2.88%
6,CCCCC(=O)OCCNC(=O)c1cc2ccccc2oc1=O,8.48%
7,CCc1ccc(N2CC(C(=O)Nc3cccc(C(=O)NC4CC4)c3)CC2=O)cc1 (centres unmarked),5.43%
8,O=C(O)CCN1C(=O)c2ccc(NC(=O)CSc3ccccc3)cc2C1=O,5.37%
9,O=C(O)CCC(=O)Nc1cccc2cccnc12,7.78%
10,CCNC(=O)COc1ncnc2scc(-c3ccc(F)cc3)c12,-2.9%
11,CN1CCN(c2nccc3c2ncn3C)CC1.Cl,8.33%
12,CC(C)(C)c1ccc(C(=O)NNC(=O)c2ccncc2)cc1,14%
13,O=C(O)C1Cc2ccccc2-c2ccccc2C1,8.27%
14,Cc1cc(C)nc(NC(=O)C(c2ccccc2)c2ccccc2)n1,5.45%
15,Cc1cccc(NC(=S)N(CCCN2CCOCC2)Cc2ccccn2)c1,0.627%
16,O=C(Nc1nnc(S(=O)(=O)N2CCOCC2)s1)c1cccc(F)c1,15.5%
17,COC(=O)C1=C(O)CSC1=Nc1cccc(C(F)(F)F)c1,-2.75%
18,O=C(CN1C(=O)CCSc2ccccc21)Nc1ccc2c(c1)OCCO2,8.2%
19,CC(=O)Oc1ccc(N(C(C)=O)S(=O)(=O)c2ccc(Cl)cc2)c2ccccc12,14.4%
